# Experimental data published in the supplement of paper PMC11417369.
# ± gives the standard deviation of the averaged measurements. This is one part of the list.
# Test system: PfAP2-I AP2 domain 3 (GST-tagged)
# Test: gcPBM binding intensity (ln(normalized median fluorescence intensity)); higher = stronger DNA binding
# Method in brief: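 Plasmodium falciparum DNA-binding domains carrying a GST tag were expressed in E. coli and applied for 1 h, at about 25 μg on average, to an Agilent 4 × 180k array. The array held primer-extended double-stranded 36-bp intergenic genomic probes together with negative controls, and binding took place in 1× PBS with 1% milk, 0.2 mg/ml BSA, 0.5% salmon testes DNA and 0.03% Triton X-100. An Alexa488 anti-GST antibody detected bound protein, and the array was scanned at 488 nm. Binding intensity is taken as the highest Masliner-normalised natural-log median intensity across replicate spots of either probe orientation.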
row,Sequence,gcPBM binding intensity (ln)
1,ATTCAAAAGATGTATACACACATGTGGATAATATAA [CACACA_site2443],8.03 ± 0.61
2,GCACCCTGTATGAATGCACACATTCATAGAATTGCT [CACACA_site5475],9.42 ± 0.042
3,AATAACAAAATAGGCACACGCACATATATATATATA [CACACA_site1497],9.43 ± 0.48
4,TATTTTTCTTTTTAAAAATATATCACATGAACATTA [XGTACX_negctrl_site183],7.43 ± 0.52
5,CCCCTTGTGGATTCTACACACAAAAAGTCGTCAAAA [CACACA_site821],8.09 ± 0.76
6,GAATTCCTTTGTGTATGTACATAATGATATTATTTT [XGTACX_site7369],7.83 ± 0.55
7,TGATCAAATAAGTTTGCATGTCAACAATGCATATAT [TGCATGCA_site1025],7.92 ± 0.66
8,TAATTTTTTAAACACACACACATATATATATATATA [CACACA_site4230],9.56 ± 0.57
9,CATATCTCAATTTATGCATGCAGGATTTTTCTAATA [TGCATGCA_site516],8.03 ± 0.69
10,ACACAAAAAAAAAAAAAAAAAAAAAAAAAAAAGGAA [CACACA_negctrl_site1162],7.82 ± 0.59
11,AATATGTACAGACATACACACATATATATATATATA [CACACA_site1222],9.27 ± 0.43
12,TTTTTTTTTTTTTGGTGTACATTTATAAAAAAAAAA [XGTACX_site8368],8.21 ± 0.35
13,ACATATAAGATTATGTGTCCACAAAAAAATAAAACA [XGTACX_site2867],7.95 ± 0.31
14,TTTTATGTTCTTAATGCACACTTATAAGTATCTTAT [CACACA_site4895],11.4 ± 0.72
15,TTTTTTTATTATTCTTATATAAAAATTTTTTTTAAT [CACACA_negctrl_site159],7.57 ± 0.57
16,TTTTTAATAACACTTTTGAAAAATAAAATAAAATAA [CACACA_negctrl_site821],7.87 ± 0.52
17,GTATATAATTTTTTATGTACTAAATTATATGTTTTT [XGTACX_site4907],7.51 ± 0.49
18,ATCTATTTGTAAAGGGTGCGCATATCAATAAAAAAT [GTGCAC_site9503],10.1 ± 0.3
19,CACACAAAGGAATATACACACATATTTATATTTATA [CACACA_site7841],7.68 ± 0.28
20,CAAAATTTTTATAAGTCACACATTATCTAAGCTTAT [CACACA_site5747],7.57 ± 0.45
21,TACCTAATATGTTATACACACATTAGAAGTACATAT [CACACA_site5375],7.86 ± 0.42
22,ATAAAAAAAAAAAAAAAATATATATATATATATATA [XGTACX_negctrl_site424],9.4 ± 0.23

row,Sequence,gcPBM binding intensity (ln)
1,TTTTAGGTCTGAATGTGTACTAAATAATATAAGTAT [XGTACX_site6554],8.12 ± 0.34
2,TGTAATAACGTTATAAAAAGTATAAAAAAAAAAAAA [CACACA_negctrl_site943],7.9 ± 0.42
3,TTATTTTTATTATTTTGTATATATATTTATAGAAAA [XGTACX_negctrl_site465],7.84 ± 0.22
4,TATATACTTTTTAATCACACTTCTTTAAAAAAAGTA [CACACA_negctrl_site1380],7.7 ± 0.4
5,TTTTTGTTATTATGTGTGCACATATATATATATATA,10.3 ± 0.31
6,TATGTTATTATTTGTACACACACATATATATCCTTG [CACACA_site5910],8.01 ± 0.58
7,AACAAATATCCCAAAAGTACACATATAAAAAAAAAA [XGTACX_site4126],8.11 ± 0.67
8,ATTATCTTATGTTATTTATTTGTCCCACATTTGTTA [TGCATGCA_negctrl_site402],7.88 ± 0.86
9,CATACACCCAGACACACACACATATATATATATATA [CACACA_site634],9.35 ± 0.4
10,TACTAACATAAAGACACACACCACATAAAATAAATA [CACACA_site7663],7.92 ± 0.45
11,CTTATTTTGTTATAAGTGCATTTTTTAAAATTTCTT,9.05 ± 0.42
12,GGAAGAAAACTTAGGTGTACATATAAAACGATATAA [XGTACX_site3118],7.96 ± 0.52
13,TATGAACACAGACACACACACAAAAAAAAAAAAAAA [CACACA_site7037],7.99 ± 0.51
14,ATAGTATACAGACACACACACACACCGATATATATA [CACACA_site8511],8.15 ± 0.61
15,TTTATGTGTATGTTTACACACATAAAAAAATATATG [CACACA_site3039],7.59 ± 0.41
16,TATACCTTTGCGTGTGCATGCGCTTATATATATTTT [TGCATGCA_site152],8.12 ± 0.86
17,TATTTTTAATATTTTGCATGCAGTATTTTATAAAAT [TGCATGCA_site250],8.39 ± 0.47
18,ACAATTCCCGTATGATGTACTTTTTTCCACTTTTTC [XGTACX_site1811],8.21 ± 0.88
19,TAAAGTTTTTTTTTAACACACACATAATAAAATAAA [CACACA_site8042],7.79 ± 0.43
20,TAAAAAAATAAAAAAAAAAAATTATAAAATTATATA [GTGCAC_negctrl_site302],7.06 ± 0.31
21,AAATATATTATAAATTGTACGTTTATATATATTATT [XGTACX_site5110],7.51 ± 0.46
22,GACACATATAAATATTAACACACATAATGAATTATA [CACACA_site8881],7.84 ± 0.42

row,Sequence,gcPBM binding intensity (ln)
1,TAACTAAGGAATAATACACACAGAAATATATATTTA [CACACA_site344],7.61 ± 0.54
2,ACATTATGCCATAAATGTACACATACATATACACAG [XGTACX_site1330],8.15 ± 0.36
3,GATGATGTTACTTAAGTGCATATAAATTATATTTTA [GTGCAC_site9940],9.82 ± 0.24
4,GTGTTCTTGTTATACACACACATATTTATATTTATA [CACACA_site6615],8.22 ± 0.5
5,TAGTATCAATCTTATACATGCATAAAATAATTATAA [TGCATGCA_site1052],7.73 ± 0.47
6,TTTATTTATATAATTACACACATATATACGCAAATG [CACACA_site2794],7.78 ± 0.31
7,AAAGTATAGATGTATACACACACCAAACGTTAAAAA [CACACA_site3081],7.91 ± 0.85
8,TTTTATTCATTAATTTGTACTTATCCTTTTGCTTAA [XGTACX_site1243],7.76 ± 0.84
9,TCATTAATTAAATCTTGTACATATTCATATATATAT [XGTACX_site2241],8.86 ± 0.042
10,TATATATATAACAACACACACAGATCATAAAACTGC [CACACA_site2161],8.82 ± 0.37
11,AAAAAAAAAAAAAACACACACAAATTTAATATATAT [CACACA_site1695],8.04 ± 0.67
12,TCCCAAGGAGTAGGCACACATAAAATATTATACATA [CACACA_site717],7.84 ± 0.41
13,TATATTTATTTTAACACACACATATATATATTATAT [CACACA_site4729],7.86 ± 0.41
14,AAAAAAAAAAAAAAAACACACACAAATTTAATATAT [CACACA_site8492],8.64 ± 0.59
15,AAAATTAAAGTAAGGACACACATATATAATACATAT [CACACA_site823],7.86 ± 0.59
16,TACACCAAAAAAAAACGTACAAAATCCCACCCAGAC [XGTACX_site4622],8.88 ± 0.87
17,TACAACATATTCAAATGTACAAATATAGGAATGAAA [XGTACX_site2730],7.89 ± 0.67
18,AGCGTATTATACTGACGTACATTTTATGTAACTCCA [XGTACX_site2715],7.65 ± 0.42
19,AACATAAAATGGATATGTACATAAAAATATATACTC [XGTACX_site7775],7.82 ± 0.39
20,TTATGTATTCATAACACATGCAAATAGGATCATATA [TGCATGCA_site731],7.93 ± 0.56
21,CGTTAGAGGGCTTTATCACACATGAAAAAAAAAAAA [CACACA_site5155],8.18 ± 0.63
22,ATATGATTTCACAAGACACACACATACAAATTTATA [CACACA_site9296],8.12 ± 0.49

row,Sequence,gcPBM binding intensity (ln)
1,CACACGCACAGACACACACACACATATAAATATGTA [CACACA_site6300],8.3 ± 0.23
2,TTATATAAACACCAACGTACGTTCATTTAACATAAC [XGTACX_site5250],8.03 ± 0.49
3,TATATATATATATATTGTACATATGTGGTATAAATG [XGTACX_site6108],9.55 ± 0.28
4,ATATTACATATGTGCTGTACGCAATATATTATATCT [XGTACX_site1520],8.38 ± 0.35
5,GCATATCTATTTTCACGTACACAAACATGTATATAT [XGTACX_site3722],8.39 ± 0.6
6,AAGAACTTTAATAAGTGTACATTTATTGGAAACATG [XGTACX_site2995],7.97 ± 0.42
7,TAAAATATAGAAAATTTTATTAAATATAAAAAAATA [CACACA_negctrl_site1441],7.23 ± 0.55
8,AAAAATATATATTCAGTGCATATAACAAAAATTATA [GTGCAC_site9794],9.66 ± 0.12
9,CATATATAACCTATAGCACACATATATAATATATAT [CACACA_site8544],8.48 ± 0.26
10,ATTAAATAAAAAAACACACACATATATACATATATA [CACACA_site3445],7.65 ± 0.52
11,CATAATAATAGAAACACACACACATAGACATATATA [CACACA_site1308],7.67 ± 0.53
12,ACATATTAATTATTATGACATACATATCAGTTATTA [TGCATGCA_negctrl_site126],7.58 ± 0.45
13,TATATTATTTTATATTGTACATACCAAATATTATAT [XGTACX_site1693],7.74 ± 0.49
14,AGAAAAATAAACAAATGTACAAATTATTACTATATA [XGTACX_site1087],7.63 ± 0.34
15,CATGTGATAATGATTAGTACATAAACAAAAATATAT [XGTACX_site5866],7.99 ± 0.86
16,TTTAATTTATATTTTGTGCACATCTTATTATATATA [GTGCAC_site9630],10.5 ± 0.21
17,AATTTTGTTTAGCACACACACATACATACATACATA [CACACA_site5707],8.86 ± 0.29
18,TATAATATTAATGACTGTACTCATACGTATATTTAT [XGTACX_site5493],7.79 ± 0.3
19,CCCATTTTGACAAAAAGTACAAGTTCAGGTTTTATA [XGTACX_site1532],7.83 ± 0.35
20,TTTCTCTTCTAAACATGTACAAAAATACATACATAT [XGTACX_site1365],7.96 ± 0.49
21,AAAAATTAAAATATTATAGTTGAAACTTTTATAAAT [TGCATGCA_negctrl_site454],7.18 ± 0.42
22,ATATATATATATATATGTACATACATACATAGAACT [XGTACX_site2214],9.58 ± 0.49
